{"source": "paper PMC7819943", "about": "“Rice protein-binding microarrays: a tool to detect cis-acting elements near promoter regions in rice”", "note": "The other results are listed elsewhere or left out.", "data": [{"target": "T1, OsWOX13 (Oryza sativa, UniProt Q5QMM3 1-267)", "T1 sequence": "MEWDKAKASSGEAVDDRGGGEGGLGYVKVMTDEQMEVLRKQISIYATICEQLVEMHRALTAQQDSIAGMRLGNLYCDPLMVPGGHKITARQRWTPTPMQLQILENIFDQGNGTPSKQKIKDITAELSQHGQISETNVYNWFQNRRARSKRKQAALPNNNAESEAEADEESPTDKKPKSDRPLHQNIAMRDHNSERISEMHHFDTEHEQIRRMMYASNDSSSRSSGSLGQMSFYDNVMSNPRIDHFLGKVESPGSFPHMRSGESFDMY", "experiment": "protein-binding microarray (RPBM); PBS, 2% BSA, 51.3 ng/ul salmon testes DNA, 50 uM zinc acetate, 200 nM TF, 25 C, 1 h; high values mean tight binding", "conditions": "protein: recombinant; tags: N-terminal polyhistidine and DsRed monomer fusion (pET32a); label: CyDye5-dUTP incorporated in the synthesized complementary strand; 3' TTTTT single-stranded linker to array surface; dsDNA, one strand shown", "outline": "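Transcription factors were made in E. coli BL21-CodonPlus as N-terminal fusions to a polyhistidine tag and DsRed, then purified on Ni–NTA. After primer extension with Cy5-dUTP and blocking with 2% BSA, a custom Agilent array was exposed for 1 h at 25 °C to 200 nM protein in PBS, 2% BSA, salmon testes DNA and 50 µM zinc acetate. Washed arrays were scanned on an Axon 4000B, and the binding signal is per-feature fluorescence intensity in arbitrary units.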", "values": [{"sequence": "CTACAAATTAACTTTGAGTACTTAATGATGTAATTTGATCCGGAGTCACCTAGTGCAG", "binding signal": "34200 fluorescence intensity (a.u.)"}, {"sequence": "ATTGATTGGTGTCTTGCCGAGAGAGGCTTCAATTCTTAGACGGAGTCACCTAGTGCAG", "binding signal": "19400 fluorescence intensity (a.u.)"}, {"sequence": "GTTGACGGATGAAAATCAAACTCGTTATCAAATTAAGGGACGGAGTCACCTAGTGCAG", "binding signal": "4090 fluorescence intensity (a.u.)"}, {"sequence": "GATATAATTCAAATTCAAATTTGAATCGGATATATAAACTCGGAGTCACCTAGTGCAG", "binding signal": "3380 fluorescence intensity (a.u.)"}, {"sequence": "TAAAATTGCATATGAAATTTTAGTGTATTTACAATGTAAGCGGAGTCACCTAGTGCAG", "binding signal": "9920 fluorescence intensity (a.u.)"}, {"sequence": "TTCGCACGGTGATGTACGAGATTGGATTTTACGACGTTTTCGGAGTCACCTAGTGCAG", "binding signal": "3560 fluorescence intensity (a.u.)"}, {"sequence": "CCGCTGATTACAGTCGGTCTTTCTGGTTTTAGCCCATGGACGGAGTCACCTAGTGCAG", "binding signal": "23500 fluorescence intensity (a.u.)"}, {"sequence": "AATTACAAAATCAATTTTAAATTTAAATTTTAGCTTATACCGGAGTCACCTAGTGCAG", "binding signal": "12100 fluorescence intensity (a.u.)"}, {"sequence": "CATAGACATATTTTAGTTAATGGTCGTATAGTCGATATACCGGAGTCACCTAGTGCAG", "binding signal": "4510 fluorescence intensity (a.u.)"}, {"sequence": "GCGATAAATGCGAGTTTAATTTCTAGTGGTGTGTAATTAACGGAGTCACCTAGTGCAG", "binding signal": "4450 fluorescence intensity (a.u.)"}, {"sequence": "TATATATATATATATATATATATATATATGTGTGTGTGTGCGGAGTCACCTAGTGCAG", "binding signal": "20300 fluorescence intensity (a.u.)"}, {"sequence": "GCATTCACCTTGCTTGACTGTAATTGAGTCATTGCTGTACCGGAGTCACCTAGTGCAG", "binding signal": "3780 fluorescence intensity (a.u.)"}, {"sequence": "CAGGCAAATTTAAGGTTAATTCAATTAAGTGATACACCAACGGAGTCACCTAGTGCAG", "binding signal": "16700 fluorescence intensity (a.u.)"}, {"sequence": "CGATGATTACGTCCTGTCCTTCAGGACAGATCGTTCGAAACGGAGTCACCTAGTGCAG", "binding signal": "16400 fluorescence intensity (a.u.)"}, {"sequence": "GTGAATTGGCTGCAAATCTAACCACAAAATACTTGTCAATCGGAGTCACCTAGTGCAG", "binding signal": "4200 fluorescence intensity (a.u.)"}, {"sequence": "AGTACTTGATAGAGATCTTAGATTGAAAATGCTCCCTGAACGGAGTCACCTAGTGCAG", "binding signal": "31800 fluorescence intensity (a.u.)"}, {"sequence": "TAGAATTGAATATATCATACTCCAGTTTATACTAGAACGTCGGAGTCACCTAGTGCAG", "binding signal": "5630 fluorescence intensity (a.u.)"}, {"sequence": "ATTATTGAAATTTAGCATTTATGAATGATGTAGGGTGATACGGAGTCACCTAGTGCAG", "binding signal": "10800 fluorescence intensity (a.u.)"}, {"sequence": "AAACTAAACTGGGCCTAAACGTGAGATATCTACGAGCCGCCGGAGTCACCTAGTGCAG", "binding signal": "3780 fluorescence intensity (a.u.)"}, {"sequence": "CTATTTCTTGTTGATTACAGGATCAAATCAACTGGTACGCCGGAGTCACCTAGTGCAG", "binding signal": "4570 fluorescence intensity (a.u.)"}, {"sequence": "GCTAACTGCTAAGAATTTGCATGAGCTAGCAATTCGCATGCGGAGTCACCTAGTGCAG", "binding signal": "4020 fluorescence intensity (a.u.)"}, {"sequence": "ACGTAATTATAGCTTATTTTGTTATGAGTTATTTTATCACCGGAGTCACCTAGTGCAG", "binding signal": "24500 fluorescence intensity (a.u.)"}, {"sequence": "TTTTATTAACTGTAAACGTCACATGTTCTGTCATACGCGTCGGAGTCACCTAGTGCAG", "binding signal": "5270 fluorescence intensity (a.u.)"}, {"sequence": "TAATCGTATTAATTGATCAACAGGCTAGGCCAGCCAAACACGGAGTCACCTAGTGCAG", "binding signal": "13200 fluorescence intensity (a.u.)"}, {"sequence": "TATTTTGGACCCATGATAGATTGATTTAGAACATGCGGAGCGGAGTCACCTAGTGCAG", "binding signal": "11400 fluorescence intensity (a.u.)"}, {"sequence": "CACAAACACACACATATTCTCAATCTAACATAATAACACTCGGAGTCACCTAGTGCAG", "binding signal": "3170 fluorescence intensity (a.u.)"}, {"sequence": "ATCACAAATCACATATCACACATCATAGATCGTTCACACGCGGAGTCACCTAGTGCAG", "binding signal": "5090 fluorescence intensity (a.u.)"}, {"sequence": "GATCTAATTTGTTGTGTATTCTCAGAGTTTACTGTACTCTCGGAGTCACCTAGTGCAG", "binding signal": "22800 fluorescence intensity (a.u.)"}, {"sequence": "AATAATCACCATGTTAAAATTATTAGATGTGTCTTGTTTACGGAGTCACCTAGTGCAG", "binding signal": "4390 fluorescence intensity (a.u.)"}, {"sequence": "TCAAATACTGCTGATTATACATACCCACATGTGTTGAATGCGGAGTCACCTAGTGCAG", "binding signal": "3580 fluorescence intensity (a.u.)"}, {"sequence": "ACCTTCACTTGATTGCTGGTGGTAGTAGTAGTAGTAGTACCGGAGTCACCTAGTGCAG", "binding signal": "21700 fluorescence intensity (a.u.)"}, {"sequence": "CGGCTGGACAGGATAATCTAGATTATCCTCCTTTCCAGTTCGGAGTCACCTAGTGCAG", "binding signal": "4220 fluorescence intensity (a.u.)"}, {"sequence": "ATTTAATTAATATGTTAATGAGCTAATCCGTTTTCGGGACCGGAGTCACCTAGTGCAG", "binding signal": "52300 fluorescence intensity (a.u.)"}, {"sequence": "ATTAATTTGCCCACATTTTAGGTTTGGATGGCTGATTTGTCGGAGTCACCTAGTGCAG", "binding signal": "16000 fluorescence intensity (a.u.)"}, {"sequence": "TTGTAATAATTTTATTTTGAGCTATAGTGCTAACCAGGACCGGAGTCACCTAGTGCAG", "binding signal": "5090 fluorescence intensity (a.u.)"}, {"sequence": "CTAATTAATCATACTCTAGTAATAATAATTCTTATCGATTCGGAGTCACCTAGTGCAG", "binding signal": "3750 fluorescence intensity (a.u.)"}, {"sequence": "AAAACGTTGTCAATTGTTAATGTATTTGGGATGCTGTCATCGGAGTCACCTAGTGCAG", "binding signal": "3450 fluorescence intensity (a.u.)"}, {"sequence": "AGTCACTTGATTTGCTTTATCATAGAGCTTGATGAGATCCCGGAGTCACCTAGTGCAG", "binding signal": "24900 fluorescence intensity (a.u.)"}, {"sequence": "CTAATGTTTTCAGATTGGGTAGATTGGAGTAGTTAACCTTCGGAGTCACCTAGTGCAG", "binding signal": "7000 fluorescence intensity (a.u.)"}, {"sequence": "GACAAATTTACAGTAGTTTAACTTTAAGCAAAGTCAAAACCGGAGTCACCTAGTGCAG", "binding signal": "6260 fluorescence intensity (a.u.)"}, {"sequence": "CTTATGATAGACATATTTCAATCTAACCACCTATCCTCTTCGGAGTCACCTAGTGCAG", "binding signal": "36100 fluorescence intensity (a.u.)"}, {"sequence": "ACTAATTAAATTTGGAAAGAAACCACATGAAATGAAAGACCGGAGTCACCTAGTGCAG", "binding signal": "29800 fluorescence intensity (a.u.)"}, {"sequence": "ACCCCAATCATTAACCCCGTATGTTAACGCACGCCATAAACGGAGTCACCTAGTGCAG", "binding signal": "11600 fluorescence intensity (a.u.)"}, {"sequence": "GTGGCTGATTTAGAGGGAGCGATCAATTCAGTGGGTCTTACGGAGTCACCTAGTGCAG", "binding signal": "3790 fluorescence intensity (a.u.)"}, {"sequence": "TTTCATTCCCTTTCCAATTAATTCCCAATGATAATCCCAACGGAGTCACCTAGTGCAG", "binding signal": "4860 fluorescence intensity (a.u.)"}, {"sequence": "AGCGAAATGGATGATTAATCAATTGGACGTTGTCGAGAATCGGAGTCACCTAGTGCAG", "binding signal": "14300 fluorescence intensity (a.u.)"}, {"sequence": "AAACAATAAACCCATTCAATCACAAGGAGAAAATAACACTCGGAGTCACCTAGTGCAG", "binding signal": "3380 fluorescence intensity (a.u.)"}, {"sequence": "TATATATATATATATATATATATATATATATATAAGCGTCCGGAGTCACCTAGTGCAG", "binding signal": "21100 fluorescence intensity (a.u.)"}, {"sequence": "TCGGATCTAATTGCCACGTAAACGCCACTTCAATGACATGCGGAGTCACCTAGTGCAG", "binding signal": "13100 fluorescence intensity (a.u.)"}, {"sequence": "AGGTTAATTAGCTAGGTGTGTAGTACACCCGGCGACACATCGGAGTCACCTAGTGCAG", "binding signal": "21200 fluorescence intensity (a.u.)"}, {"sequence": "ACCTTTGACAGCTCGAGCTCATGGCGGCTGCAGCCCTGCACGGAGTCACCTAGTGCAG", "binding signal": "3540 fluorescence intensity (a.u.)"}, {"sequence": "GCGAACTGCCTGATAATTAAACTATCCCGATCGACATAAACGGAGTCACCTAGTGCAG", "binding signal": "3640 fluorescence intensity (a.u.)"}, {"sequence": "TCATAAATGATAAATCACCTGATTCAATATACAAATAGGACGGAGTCACCTAGTGCAG", "binding signal": "30100 fluorescence intensity (a.u.)"}, {"sequence": "TATTATATCACCACTAATTAATATATCTCACTTACAAACACGGAGTCACCTAGTGCAG", "binding signal": "7950 fluorescence intensity (a.u.)"}]}]}
